# Experimental data published in the BET-seq Pho4 binding data (Le et al. 2018).
# Some of the results follow. The energies were worked out here from pooled read counts, against the library average; single values are noisy.
# Target: T1, Pho4 (S. cerevisiae) (UniProt P07270)
# T1 sequence: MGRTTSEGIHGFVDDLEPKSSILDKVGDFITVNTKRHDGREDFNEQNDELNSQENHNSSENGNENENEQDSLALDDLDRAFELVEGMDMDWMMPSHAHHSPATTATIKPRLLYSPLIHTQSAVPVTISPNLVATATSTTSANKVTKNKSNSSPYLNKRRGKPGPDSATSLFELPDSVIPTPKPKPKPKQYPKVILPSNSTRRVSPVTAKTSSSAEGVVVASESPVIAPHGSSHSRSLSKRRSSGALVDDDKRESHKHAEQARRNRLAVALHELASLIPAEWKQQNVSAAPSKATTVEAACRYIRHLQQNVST
# Assay: relative binding free energy (BET-seq); higher = weaker binding
# Settings: reference: library average
row,Sequence,relative binding free energy
1,TGTAGCACGTGGTGGA,-0.167 kJ/mol
2,ATGGGCACGTGCTAGT,-0.92 kJ/mol
3,ATGGTCACGTGGCATA,-0.167 kJ/mol
4,AGGCGCACGTGCGAGT,-0.418 kJ/mol
5,CGTCGCACGTGAGGGA,1.13 kJ/mol
6,TGTGGCACGTGGGGAA,-0.795 kJ/mol
7,GGAGACACGTGAAGTT,0.753 kJ/mol
8,TGAGTCACGTGTGAGA,1.09 kJ/mol
9,GTGCTCACGTGGGTAA,0.0837 kJ/mol
10,ATAGTCACGTGTTGTA,0.377 kJ/mol
11,AATTTCACGTGTAGGT,0.92 kJ/mol
12,TTTAACACGTGGTAAG,-0.418 kJ/mol
13,GCGGGCACGTGTTTGT,-0.167 kJ/mol
14,TTGTTCACGTGGGGGG,0.753 kJ/mol
15,GGGTTCACGTGTGGAA,1.21 kJ/mol
16,GTACACACGTGGTGTG,-0.502 kJ/mol
17,AGGGACACGTGTGTTA,-0.251 kJ/mol
18,TGTAGCACGTGGAGGC,0.0418 kJ/mol
19,GGTGGCACGTGGTACT,-0.879 kJ/mol
20,GTAGGCACGTGCGTGT,-0.46 kJ/mol
21,GGTTGCACGTGAAGTC,1.46 kJ/mol
22,CAATTCACGTGTTTTT,0.879 kJ/mol
23,CTTTACACGTGATGGA,1 kJ/mol
24,ATGTTCACGTGAGGGC,1.76 kJ/mol
25,CTTGGCACGTGAGGCA,0.586 kJ/mol

row,Sequence,relative binding free energy
1,ATTGGCACGTGCGCTG,-1.42 kJ/mol
2,ATGGACACGTGTGATA,0.46 kJ/mol
3,CGTTGCACGTGTGGCA,-0.209 kJ/mol
4,TTGTGCACGTGCAGCT,-0.377 kJ/mol
5,AGTGTCACGTGAGTAG,1.05 kJ/mol
6,TTGGACACGTGGGGCA,-0.251 kJ/mol
7,GGATACACGTGATTGT,0.209 kJ/mol
8,GTTGCCACGTGGAATT,1 kJ/mol
9,TGTTGCACGTGGTTAG,-0.251 kJ/mol
10,GATAGCACGTGTTGTG,-0.544 kJ/mol
11,GTTTTCACGTGATGAA,1.63 kJ/mol
12,TCGTGCACGTGGGGAT,-0.711 kJ/mol
13,TGTCTCACGTGGTTTC,1.67 kJ/mol
14,TAAAACACGTGAGTGG,1 kJ/mol
15,AGTCACACGTGTGGGG,0 kJ/mol
16,AGGTTCACGTGTTATG,0.962 kJ/mol
17,GAGGTCACGTGTCGTC,1.42 kJ/mol
18,AGTTTCACGTGATGTT,1.26 kJ/mol
19,TGTCGCACGTGACGGT,-0.251 kJ/mol
20,TAAGTCACGTGGGATA,0.167 kJ/mol
21,TTTTACACGTGTTCCG,0.711 kJ/mol
22,GCTTACACGTGTTAGT,0.586 kJ/mol
23,CGCGGCACGTGTAGTG,-0.0418 kJ/mol
24,TAAGTCACGTGGTACG,-0.0418 kJ/mol
25,GATTACACGTGTATTG,0.335 kJ/mol

row,Sequence,relative binding free energy
1,AGGCACACGTGTTTGG,0.0837 kJ/mol
2,TTTTCCACGTGTGTTG,0.46 kJ/mol
3,TGGGGCACGTGCGTTT,-0.586 kJ/mol
4,AGAAGCACGTGGTCGG,-0.418 kJ/mol
5,GGTTGCACGTGGGATT,0.209 kJ/mol
6,CATTTCACGTGGTAAT,1.3 kJ/mol
7,TGTATCACGTGTGTAT,0.377 kJ/mol
8,GTATTCACGTGGACGG,0.92 kJ/mol
9,TTGATCACGTGCGTGT,0.167 kJ/mol
10,TCTAGCACGTGCGTTT,-0.293 kJ/mol
11,CTGTACACGTGTTAAG,0.544 kJ/mol
12,AGGGACACGTGCAGGG,-0.251 kJ/mol
13,TTATACACGTGACATG,0.753 kJ/mol
14,GGGTGCACGTGGTTAA,-0.0418 kJ/mol
15,GCGTGCACGTGTAGTG,-0.0837 kJ/mol
16,AGAGTCACGTGTAGGT,0.46 kJ/mol
17,TTTTTCACGTGGGAGG,1.26 kJ/mol
18,TTCGGCACGTGGGTTT,-0.502 kJ/mol
19,CGTTGCACGTGGTAAT,0.126 kJ/mol
20,AGTTTCACGTGGCCTG,0.628 kJ/mol
21,GGCGGCACGTGAGGCA,1.17 kJ/mol
22,TTGTTCACGTGGGGGA,0.669 kJ/mol
23,GTTCGCACGTGTACTG,0.502 kJ/mol
24,AGGCGCACGTGATGGA,0.669 kJ/mol
25,GTGTGCACGTGAAAGT,0.544 kJ/mol

row,Sequence,relative binding free energy
1,ATGTTCACGTGAGAGA,1.38 kJ/mol
2,GGATTCACGTGGCTAG,0.544 kJ/mol
3,TTGGTCACGTGAGGTG,1.3 kJ/mol
4,TGTCGCACGTGTGGTC,-0.251 kJ/mol
5,TTCTGCACGTGAACGG,1.34 kJ/mol
6,CTGTTCACGTGTACGG,0.92 kJ/mol
7,TACGGCACGTGGTTGG,-0.167 kJ/mol
8,CGGGACACGTGAGATA,2.26 kJ/mol
9,CATTACACGTGTGTTG,0.46 kJ/mol
10,GGTTACACGTGTAGAT,0.92 kJ/mol
11,TTTGGCACGTGGACCG,0.209 kJ/mol
12,AGTCGCACGTGTTGGA,-0.126 kJ/mol
13,GGGATCACGTGGGCGT,0.167 kJ/mol
14,ATTAACACGTGAAGGT,1.38 kJ/mol
15,GCCTACACGTGGTGGG,0.293 kJ/mol
16,ATTAACACGTGGAGAG,0.167 kJ/mol
17,TTGGACACGTGAAGAG,0.795 kJ/mol
18,CGCGGCACGTGGGTTG,-0.837 kJ/mol
19,AGGGACACGTGGAAGG,0.293 kJ/mol
20,TATATCACGTGGATGG,0.586 kJ/mol
21,TGAGCCACGTGTATAG,0 kJ/mol
22,ATCATCACGTGTGGAG,0.335 kJ/mol
23,CAGTTCACGTGGTTGC,1.21 kJ/mol
24,TAGTACACGTGGGTTC,-0.167 kJ/mol
25,GAGGGCACGTGATTGG,0.377 kJ/mol

row,Sequence,relative binding free energy
1,TTTGACACGTGTGATG,0.293 kJ/mol
2,TATAACACGTGTTTAT,-0.711 kJ/mol
3,GGTTTCACGTGGTATC,1.13 kJ/mol
4,GGATTCACGTGTCATG,1.13 kJ/mol
5,AAAAACACGTGGTGGT,-0.335 kJ/mol
6,TTGGCCACGTGGGAGT,-0.753 kJ/mol
7,GCGGTCACGTGGGTTA,-0.167 kJ/mol
8,GTTGGCACGTGTTTAG,-0.335 kJ/mol
9,AGGAGCACGTGACGGG,-0.293 kJ/mol
10,TTGAACACGTGGCTGG,-0.335 kJ/mol
11,GTAGGCACGTGAGCAT,0.0837 kJ/mol
12,TGAAGCACGTGTGTCA,-0.377 kJ/mol
13,ATTTGCACGTGGAGTA,0.209 kJ/mol
14,TTGAACACGTGGGAGT,-0.167 kJ/mol
15,GGAGGCACGTGCAGGT,-0.293 kJ/mol
16,ATGATCACGTGGCTTA,0.293 kJ/mol
17,CGTGGCACGTGAGTCG,0 kJ/mol
18,CGTTTCACGTGGTGAA,0.544 kJ/mol
19,TCTTTCACGTGTTGAA,1.51 kJ/mol
20,CGCGTCACGTGGCGGG,-0.293 kJ/mol
21,TATCTCACGTGTGCGT,0.669 kJ/mol
22,TTCGGCACGTGTCGAA,0.711 kJ/mol
23,TGCGGCACGTGTTTTA,-0.209 kJ/mol
24,GTGGTCACGTGTCCGG,0.628 kJ/mol
25,TAGAGCACGTGATTTA,0.335 kJ/mol

row,Sequence,relative binding free energy
1,GCGGTCACGTGGGCAG,0 kJ/mol
2,AGGTCCACGTGCGGTT,-0.377 kJ/mol
3,TATGGCACGTGTTATC,-0.753 kJ/mol
4,TGGGGCACGTGGTTAG,-0.544 kJ/mol
5,ATTGTCACGTGTAGCT,0.251 kJ/mol
6,ATAGCCACGTGAGGGT,0 kJ/mol
7,GAGCGCACGTGTGGGT,-0.0837 kJ/mol
8,AGTCTCACGTGTTGAG,1.21 kJ/mol
9,TCTGACACGTGGTAGG,-0.0837 kJ/mol
10,TCGTTCACGTGTTGCG,0.544 kJ/mol
11,CGGTGCACGTGTACGG,0.0418 kJ/mol
12,TCTGGCACGTGGGATT,-0.628 kJ/mol
13,TCTTTCACGTGAGATG,1.72 kJ/mol
14,GGTCGCACGTGGGGGC,-0.418 kJ/mol
15,TAGAGCACGTGAAGAT,1.42 kJ/mol
16,GGTTTCACGTGTGTGA,1.3 kJ/mol
17,GCAGACACGTGTGGGA,0.377 kJ/mol
18,GGGTGCACGTGTTACA,0.167 kJ/mol
19,TCTTTCACGTGGCGTG,0.669 kJ/mol
20,TTGGCCACGTGGCATG,-0.879 kJ/mol
21,GCAGTCACGTGTATGT,0.669 kJ/mol
